Test results from a collection of fitness landscapes (doi:10.1016/j.celrep.2020.107928).
Over roughly 81,000 sequences, “one-hybrid fitness for binding NBS DNA” has its median near -0.1; the highest 2% begin near 0.36. The list shows a part of the results.

B1: Caulobacter ParB omega fusion; a variant is named by its letters at X, in order, B8GW30 (parent)
chain: MESVVVGEPGMSEGRRGLGRGLSALLGEVDAAPAQAPGEQLGGSREAPIEILQRNPDQPRRTFREEDLEDLSNSIREKGVLQPILVRPSPDTAGEYQIVAGERAWRAAQRAGLKTVPIMVRELDDLAVLEIGIIENVQRADLNVLEEALSYKVLMEKFERTQENIAQTIGKSXSHVANXMRLLXLPDEVQSYLVSGELTAXHARAIAAAADPVALAKQIIEGGLSVRETEALARKAPNLSAGKSKGGRPPRVKDTDTQALESDLSSVLGLDVSIDHRGSTGTLTITYATLEQLDDLCNRLTRGI

Variants of: B1
Test: one-hybrid fitness for binding NBS DNA (the Noc-binding site; scaled: cognate 1, non-cognate 0); higher = stronger binding
Conditions: with NBS DNA site
Method in brief: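 Caulobacter ParB libraries with four specificity codons randomised were screened by bacterial one-hybrid selection in the E. coli USO strain, using a HIS3 reporter whose site lies 19 bp from the promoter. Selection ran for 48 hours at 37°C on M9 lacking histidine, with 0.1 mM IPTG and 5 mM 3-AT. Plasmids were Illumina-sequenced before and after selection, three replicate libraries were pooled, and variants with under 10 reads were dropped. Fitness is the log change in each variant's read ratio to wild type, rescaled against the cognate and non-cognate sites.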

one-hybrid fitness for binding NBS DNA, 0.332:
QCKP

one-hybrid fitness for binding NBS DNA, 0.204:
QLQA

one-hybrid fitness for binding NBS DNA, 0.549:
QRMA

one-hybrid fitness for binding NBS DNA, 0.205:
KRSH

one-hybrid fitness for binding NBS DNA, 0.287:
RLKY

one-hybrid fitness for binding NBS DNA, 0.307:
QCKL

one-hybrid fitness for binding NBS DNA, 0.494:
QKHS

one-hybrid fitness for binding NBS DNA, 0.679:
QTCR

one-hybrid fitness for binding NBS DNA, ≤ 0.2:
QGST
LAWT
CVAS
VAHT
VHWT
NTQF
MYLS
MVGG
WPLC
QVGG
THSS
LNLC
YQQT
FVGC
LIKY
TDKD
FCLG
RPSY
QSAQ
MSVS
RWAK
RQPE
QVRW
NWRI
DILG
QALF
HYYK
MVRV
YLLV
SEAN
QMIA
NIPD
MESP
QKYC
GKHT
FVKR
SNMN
HCHG
RFLT
LCFL
FTKP
RYVG
DIPN
ADSS
AMQC
RSGA
FATG
GYSK
GTWA
HQTW
YVSF
PTRG
DNNR
FGQS
RSPC
RYWL
GKAG
RCTW
SPCM
RMVQ
GSQF
LSYR
ERQN
GDNS
RIPA
GVHQ
SSYG
VKPG
VRAC
SGYR
GAPG
MWTS
GDFR
PRLW
HNPT
DCSV
PTHN
CDSS
FQGS
QHDA
SCKT
RFQG
RFLG
IGAA
HPRF
PTGN
YGTR
RHHY
MRFI
QRPK
DGRH
QAYW
KGPF
ILEI
TNTR
HMDS
TKQN
AVML
LYIF
MKTS
HRAI
DVLG
PKHN
HNIY
QQML
ITIC
PDVS
NVPL
ASLC
ISHR
QPHQ
MQHR
THCF
STGS
FQKC
AQAR
FCMS
NCRG
EAYA
TTEY
FVNT
WPDS
RHNC
GVGG
LPDL
PWLF
RRVF
TLGN
LVDY
FQNG
DSTV
RWIV
VNVG
KIVD
NHHN
DYIG
FDMG
ENHG
RIVK
AHRV
GPKT
RIRK
FTFT
LKMY
MIQR
WYFS
SLVV
ACGW
CHPT
QHIL
EPCY
SRPN
RPKE
WQDI
RMLP
YNHR
EVKD
TLTL
TSYV
HPTR
NGVS
LYTV
YERV
LDRT
FMTQ
PTGL
QWWG
AITN
CAAT
AMVL
RSFM
NMFG
SVGT
TGMT
HRMR
EHNS
PQLA
RFWY
VFRY
EHHS
GVRP

one-hybrid fitness for binding NBS DNA, 0.251:
RRWQ

one-hybrid fitness for binding NBS DNA, 0.281:
RSCT

one-hybrid fitness for binding NBS DNA, 0.439:
QNRR

one-hybrid fitness for binding NBS DNA, 0.246:
QTTV

one-hybrid fitness for binding NBS DNA, 0.237:
QKGY

one-hybrid fitness for binding NBS DNA, 0.279:
QARI
